Screen size: about 5,400 compounds; about 190 (3.5%) showed an effect of 50% or more. The list shows a part of the results. Positions of bridges follow the written chain, without caps; N, C: chain ends. Non-standard residues stand in square brackets, D forms with d. Residues, ends and D or L forms follow the SMILES beside them. *: point of attachment. Heptanoyl(5-Me) = CCC(C)CCCC(=O)*; Dab = NCC[C@H](N)C(=O)O

The test system of this test is Vero-E6. The test can be described thus: primary screen, phospholipidosis by LipidTOX staining; higher = more effect of the substance. The settings on record: 10 µM. In outline:
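Drug-induced phospholipidosis detected with HCS LipidTOX Red reagent in Vero-E6 cells. Compounds tested at 10 μM, with amiodarone (10 μM) as positive control and DMSO (0.1 v/v %) as vehicle.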
On to `O=C1c2ccccc2S(=O)(=O)N1CCCCN1CCN(c2ncccn2)CC1`, for which the result_ITMP is reported as -10.7%.

On to `COc1ccc2c(c1)c(CC(=O)OCC(C(=O)O)c1ccccc1)c(C)n2C(=O)c1ccc(Cl)cc1` (centres unmarked), for which the result_ITMP amounted to 5.87%.

With `Cn1c([N+](=O)[O-])cnc1COC(N)=O`, the result_ITMP is reported as -1.34%.

For the molecule `NC(N)=O`, the result_ITMP is recorded as -2.14%.

On to `CCN(c1cc(-c2ccc(CN3CCOCC3)cc2)cc(C(=O)NCc2c(C)cc(C)[nH]c2=O)c1C)C1CCOCC1`, for which the result_ITMP is recorded as -11.2%.

Turning to `Cc1cccc(C)c1NC(=O)CN1CCCCCC1`, the result_ITMP is given as -0.91%.

`O=C(O)CC1CC(c2ccccc2)=NO1` (centres unmarked): the result_ITMP is -4.92%.

With `COc1ccc(C2Oc3c(CC=C(C)C)c(O)cc(O)c3C(=O)C2=O)cc1` (centres unmarked), the result_ITMP is -2.61%.

For `CCCn1c(=O)c2nc(-c3ccccc3)[nH]c2n(CCC)c1=O`, the result_ITMP is -7.21%.

`Cc1ccc2c(c1)C(=O)C1(O)CCN(c3ccccc3)C1=N2` (racemic): the result_ITMP was -2.01%.

In the case of `C[C@]12CC[C@@H]3c4ccc(O)cc4CC[C@H]3[C@@H]1C[C@@H](O)[C@@H]2O`, the result_ITMP is recorded as -1.55%.

For `Cc1nc(N)sc1-c1ccnc(Nc2ccc(N3CCOCC3)cc2)n1`, the result_ITMP is reported as -4.52%.

For `O=C(OCCN1CCOCC1)c1cccnc1Nc1cccc(C(F)(F)F)c1`, the result_ITMP is -5.21%.

For the molecule `O=C(O[C@H]1C[C@H]2CC[C@@H](C1)[N+]21CCCC1)C(O)(c1ccccc1)c1ccccc1`, the result_ITMP is -3.78%.

Take `CCCCC(=O)O[C@]1(C(=O)CO)CC[C@H]2[C@@H]3CCC4=CC(=O)CC[C@]4(C)[C@H]3[C@@H](O)C[C@@]21C`: the result_ITMP amounted to 6.06%.

In the case of `CC1(C)C[C@@H]1C(=O)N/C(=C\CCCCSC[C@H](N)C(=O)[O-])C(=O)O`, the result_ITMP is -1.62%.

As to `CCC[C@H](NC(=O)[C@@H]1[C@H]2CCC[C@H]2CN1C(=O)[C@@H](NC(=O)[C@@H](NC(=O)c1cnccn1)C1CCCCC1)C(C)(C)C)C(=O)C(=O)NC1CC1`, the result_ITMP was -3.28%.

On to `Cc1noc(NS(=O)(=O)c2ccc(N)cc2)c1C`, for which the result_ITMP is -0.76%.

For `CCc1cccc2c3c([nH]c12)C(CC)(CC(=O)O)OCC3` (centres unmarked), the result_ITMP came to 2.2%.

With `CC[N+](CC)(CC)CCC(O)(c1ccccc1)C1CCCCC1` (centres unmarked), the result_ITMP is on record as -9.31%.

Take `CSc1ccc(C(=O)/C=C/c2cc(C)c(OC(C)(C)C(=O)O)c(C)c2)cc1`: the result_ITMP is recorded as -2.18%.

`N=C(N)c1ccc(-c2ccc(-c3ccc(C(=N)N)cc3)o2)cc1`: the result_ITMP was -7.69%.

For the molecule `Cn1cc(S(C)=O)c(=O)c2ccc(F)cc21` (centres unmarked), the result_ITMP was found to be 0.88%.

Regarding `O=C(O)c1ccccc1C(=O)Nc1ccc(-c2ccccc2)cc1`, the result_ITMP is given as -1.06%.

Turning to `O=C(NC(O)C(Cl)(Cl)Cl)NC(O)C(Cl)(Cl)Cl` (centres unmarked), the result_ITMP is on record as -5%.

As to `CC(=O)N1CCN(CCOc2ccc(C3CCN(C4=Nn5c(nnc5C(F)(F)F)CC4)CC3)cc2)CC1`, the result_ITMP is on record as -1.31%.

Consider `O=C1N=C(N2CCOCC2)CN1c1ccc(Cl)cc1`, for which the result_ITMP is listed as -1.04%.

In the case of `C=CC(=O)Nc1ccc2ncnc(Nc3ccc(OCc4cccc(F)c4)c(Cl)c3)c2c1`, the result_ITMP amounted to 5.68%.

Take `CC(=O)NC1CCSC1=O` (centres unmarked): the result_ITMP is recorded as -6.65%.

On to `Cc1cc(-c2cc(O)ccc2Cl)cc2nnc(Nc3ccc(OCCN4CCCC4)cc3)nc12`, for which the result_ITMP is recorded as -2.38%.

Regarding `CC(Oc1c(Cl)cccc1Cl)C1=NCCN1` (centres unmarked), the result_ITMP came to 3.59%.

Regarding `C[N+](C)(CCOc1ccccc1)Cc1ccccc1`, the result_ITMP came to 5.42%.

With `O=C1NNc2nc(CN3Cc4ccccc4C3)nc3cccc1c23`, the result_ITMP is given as 0.43%.

As to `CC(C)=CCC/C(C)=C/CC/C(C)=C/CC/C(C)=C/CC1=C(C)C(=O)c2ccccc2C1=O`, the result_ITMP is listed as -5.99%.

On to `Cc1cc(C)cc(NC(=O)Nc2ccc(OS(N)(=O)=O)cc2)c1`, for which the result_ITMP is listed as -9.64%.

Consider `O=c1cccc2n1C[C@H]1C[C@@H]2CN(CCN2C[C@@H]3C[C@H](C2)c2cccc(=O)n2C3)C1`, for which the result_ITMP is recorded as -6.09%.

`C[C@H](C[C@H](N)C(=O)O)C(=O)O`: the result_ITMP is given as 1.7%.

Consider `COc1ccc(/C=C\c2cc(OC)c(OC)c(OC)c2)cc1OP(=O)([O-])[O-]`, for which the result_ITMP is given as 11.6%.

In the case of `Cc1cccc(-c2n[nH]cc2-c2ccc3ncccc3n2)n1`, the result_ITMP is listed as -5.09%.

With `CCOC(=O)[C@H](CCc1ccccc1)N[C@@H](C)C(=O)N1CCC[C@H]1C(=O)O`, the result_ITMP is reported as -3.09%.

As to `CCCC[N+]1(C)[C@@H]2C[C@@H](OC(=O)[C@H](CO)c3ccccc3)C[C@H]1[C@@H]1O[C@@H]12` (some centres unmarked), the result_ITMP is -5.86%.

`O=C1CC2(CCCC2)CC(=O)N1CCNCC1COc2ccccc2O1` (centres unmarked): the result_ITMP is on record as -1.2%.

With `Cc1cc(Cn2cnc3c2C[C@@H](C(=O)O)N(C(=O)C(c2ccccc2)c2ccccc2)C3)ccc1N(C)C`, the result_ITMP is -1.55%.

On to `CC(=O)N[C@@H](Cc1ccccc1)C(=O)O`, for which the result_ITMP came out at 2.94%.

On to `Cc1nc2ccc(CN(C)c3ccc(C(=O)N[C@@H](CCC(=O)O)C(=O)O)s3)cc2c(=O)[nH]1`, for which the result_ITMP is recorded as -6.73%.

Regarding `CCOc1ccc(-n2c(C(C)N(Cc3cccnc3)C(=O)Cc3ccc(OC(F)(F)F)cc3)nc3ncccc3c2=O)cc1` (racemic), the result_ITMP is listed as -1.28%.

For `CNC(=O)[C@H](Cc1ccccc1)NC(=O)[C@H](CC(C)C)[C@H](CSc1cccs1)C(=O)NO`, the result_ITMP is listed as 0.06%.

On to `CNC(=O)Oc1ccccc1OC(C)C`, for which the result_ITMP is recorded as -0.41%.

With `Cn1nnnc1SCC1=C(C(=O)O)N2C(=O)[C@@H](NC(=O)[C@H](OC=O)c3ccccc3)[C@H]2SC1`, the result_ITMP is given as -2.11%.

For `Oc1ccc2c3c1OC1C(O)CCC4(O)C(C2)N(CC2CCC2)CCC314` (centres unmarked), the result_ITMP was determined as 1.96%.

As to `CCCCCCCCCCCCCCCCCCCCCCCCC(=O)O`, the result_ITMP is listed as -6.72%.

With `NC(=S)N/N=C/c1ncccc1N`, the result_ITMP is -1%.

As for `CCOC(=O)C1=CCCC[C@H]1S(=O)(=O)Nc1ccc(F)cc1Cl`, the result_ITMP was -5.48%.

Consider `COC(=O)C1=C(C)N(C)C(C)=C(C(=O)OC)C1c1ccc(C(F)(F)F)cc1`, for which the result_ITMP is reported as -7.11%.

On to `O=C1N[C@@H]2[C@@H](O)[C@@H](O)[C@H](O)[C@@H](CO)N2C1=O`, for which the result_ITMP was -4.33%.

Consider `C[C@]12COC(=O)C[C@@H]1CC[C@@H]1[C@@H]2CC[C@@]2(C)[C@H]1CC[C@]2(C)O`, for which the result_ITMP came to 0.61%.

On to `CC(=O)Nc1ccc(O)cc1`, for which the result_ITMP is on record as 0.69%.

With `NC(=O)CS(=O)C(c1ccccc1)c1ccccc1` (centres unmarked), the result_ITMP is -1.1%.

Take `COc1ccc(Cc2nc(=O)c3c(C)nc([C@@H](CCCc4ccccc4)[C@@H](C)O)n3[nH]2)cc1OC`: the result_ITMP is 0.34%.

With `O=P1(N(CCCl)CCCl)NCCCO1` (centres unmarked), the result_ITMP is -2.34%.

Turning to `Cc1ccc(NC2=CC(=O)c3sc(C)nc3C2=O)cc1`, the result_ITMP is on record as -4.12%.

As to `c1ccc2c(c1)sc1ccccc12`, the result_ITMP is -4.35%.

For `NCCCC(N)C(=O)O` (centres unmarked), the result_ITMP is reported as 4.66%.

On to `CCCN[C@@H]1CCc2c(OC)cccc2[C@@H]1C`, for which the result_ITMP is on record as -3.11%.

Regarding `Nc1ccc(S(=O)(=O)[O-])cc1`, the result_ITMP is on record as -6.57%.

With `Cc1cc(-n2c(=O)[nH]c(=O)n(C)c2=O)ccc1Oc1ccc(SC(F)(F)F)cc1`, the result_ITMP was determined as 2.17%.

On to `Cc1ccccc1N1C(=O)c2cc(S(N)(=O)=O)c(Cl)cc2NC1C` (centres unmarked), for which the result_ITMP was -2.71%.

In the case of `O=C(O)CNC(=O)c1ccccc1I`, the result_ITMP is listed as -3.23%.

As for `CC1CCC2C(C)(C)C3CC12CCC3(C)O` (centres unmarked), the result_ITMP is listed as -2.96%.

With `COc1cc(C)[nH]c(=O)c1CNC(=O)c1c(C)n([C@H](C)C2CCOCC2)c2ccccc12`, the result_ITMP is recorded as -1.74%.

`CC(C)COC(=O)c1ccc(N)cc1`: the result_ITMP is listed as -9.48%.

Take `O=C1N(c2ccccc2)c2ccccc2C1(Cc1ccncc1)Cc1ccncc1`: the result_ITMP is -1.08%.

Consider `O=C(NS(=O)(=O)c1ccc(Br)s1)c1ccc(Cl)cc1Cl`, for which the result_ITMP was -2.71%.

On to `CN(C)CC[C@@H](c1ccc(Cl)cc1)c1ccccn1` [R4A_0004036_001 / SPE_K39462424], for which the result_ITMP amounted to 22.6%.

For the molecule `CCc1c(C(=O)Nc2cc(S(=O)(=O)N(CC)CC)ccc2O)[nH]c(C)c1C(C)=O`, the result_ITMP came out at 21.9%.

Take `C[C@@H]1CC2C3CCC4=CC(=O)C=C[C@]4(C)[C@@]3(F)[C@@H](O)C[C@]2(C)[C@H]1C(=O)CO` (some centres unmarked): the result_ITMP is reported as 6.16%.

Regarding `OCCOCCN1CCN(C(c2ccccc2)c2ccc(Cl)cc2)CC1` (centres unmarked), the result_ITMP was determined as 14.9%.

With `C[C@@H](O[C@H]1OCCN(Cc2nn[nH]c2CN(C)C)[C@H]1c1ccc(F)cc1)c1cc(C(F)(F)F)cc(C(F)(F)F)c1`, the result_ITMP was 71.2%.

Take `COc1ccc(CNC(=O)Nc2ncc([N+](=O)[O-])s2)cc1`: the result_ITMP is given as -1.3%.

`Cc1cc(CCCOc2c(C)cc(-c3noc(C(F)(F)F)n3)cc2C)on1`: the result_ITMP was -11.7%.

As for `C=CC1=C(C(=O)O)N2C(=O)[C@@H](NC(=O)/C(=N\OCC(=O)O)c3csc(N)n3)[C@H]2SC1`, the result_ITMP is reported as -2.73%.

In the case of `CCS(=O)(=O)N(Cc1cccnc1)c1cccc(-c2ccc(C#N)cc2)c1`, the result_ITMP is -1.54%.

Take `CCS(=O)c1nc(-c2cccc(OCc3ccccc3)c2)cc(C(F)(F)F)n1` (centres unmarked): the result_ITMP is given as -1.04%.

`CN1C(=O)CCS(=O)(=O)C1c1ccc(Cl)cc1` (centres unmarked): the result_ITMP is recorded as 2.2%.

As to `CC1(S(=O)(=O)[O-])CC(=O)c2ccccc2C1=O` (centres unmarked), the result_ITMP is listed as -0.84%.

`C/C(=C\C(N)C(=O)O)CP(=O)(O)O` (centres unmarked): the result_ITMP is recorded as -1.95%.

In the case of `CCC(C)CCCC(=O)N[C@@H](CCN)C(=O)N[C@H](C(=O)N[C@@H](CCN)C(=O)N[C@H]1CCNC(=O)[C@H]([C@@H](C)O)NC(=O)[C@H](CCN)NC(=O)[C@H](CCN)NC(=O)[C@H](CC(C)C)NC(=O)[C@@H](CC(C)C)NC(=O)[C@H](CCN)NC1=O)[C@@H](C)O` (stereo partly drawn) [R4A_0005175_001 / SPE_A18924964] ({Heptanoyl(5-Me)}-[Dab]T[Dab][Dab][Dab][dL]L[Dab][Dab]T; lactam 4-C), the result_ITMP is on record as -1.3%.

With `Nc1ccc(-c2nc3ccc(-c4nc5ccc(N)cc5[nH]4)cc3[nH]2)cc1`, the result_ITMP is -2.7%.

With `CS(=O)(=O)CCNCc1ccc(-c2ccc3ncnc(Nc4ccc(OCc5cccc(F)c5)c(Cl)c4)c3c2)o1`, the result_ITMP is given as 91.4%.
